Data reported in PubChem BioAssay AID504832 (National Center for Advancing Translational Sciences (NCATS), 2011).
The whole screen tested about 310,000 compounds, of which about 18,000 (5.8%) were called active. Inconclusive means that the source gave no clear call. Such entries were picked first, then a sample of the others. Calls come from the whole dose curve; as a rule, active = well fitted inhibition curve with a large enough effect; inconclusive = small, poorly fitted or top-dose-only effect, or another doubt; inactive = no such curve, though single readings can be large or run the other way. No potency is given beside an inconclusive call; the fits are too rough.
% is set by controls: 0 for no effect and ±100 for the full control effect; potency is the fitted concentration of half-maximal effect; tags give direction and shape of the fitted curve.

Assay: Primary qHTS for delayed death inhibitors of the malarial parasite plastid, 48 hour incubation
Details: P. falciparum luciferase growth in erythrocytes; series mostly up to 28.7 µM; activity change, negative = inhibition: at the top concentration
Summary of the method: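 First compound was added to culture medium, then infected red cells at 0.1% parasitemia and 2% hematocrit (final). After incubation at 37 C under 5% CO2, luciferase detection reagent was dispensed and light output recorded.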
With `CSc1nnc2c3ccccc3n(CCc3ccccc3)c2n1` the Potency was inconclusive [inhibitor, single point]. In the case of `CCN(CC)S(=O)(=O)c1cccc(-c2nnc(SCC(=O)N3CCC(C(=O)O)CC3)n2N)c1`, the Potency is reported as inconclusive [inhibitor, single point]. In the case of `Cc1ccc(NC(=O)C2CCN(S(=O)(=O)c3ccc4c(c3)NC(=O)C(C)S4)CC2)c(Cl)c1` (stereo not given), the Potency is reported as active: 10.4 µM. For `CCn1c(=O)c(C(=O)CN2CCN(Cc3ccc4c(c3)OCO4)CC2)c(N)n(Cc2ccccc2)c1=O`, the Potency was inconclusive [inhibitor, single point]. In the case of `Cc1cc(C)c(OCCCNCc2ccccc2)c(Br)c1`, the Potency is reported as inconclusive [inhibitor, single point]. For `CC(C)n1c(SCC(=O)Nc2nncs2)nnc1-c1ccco1`, the “activity change, negative = inhibition” value was inactive: 25.7%. In the case of `Cc1ccc(C(=O)c2c3ccc(C(F)(F)F)cc3[n+]([O-])n2CCCC(N)=O)cc1`, the Potency is reported as inconclusive [inhibitor, partial curve, poor fit]. For `CN1CCN(c2ccc(Cl)cc2NC(=O)c2cccc(S(=O)(=O)N(C)C)c2)CC1`, the Potency was inconclusive [inhibitor, single point]. In the case of `CCOC(=O)N1CCN(C2CCCN(C(=O)c3ccccc3N(C)C)C2)CC1` (stereo not given), the Potency is reported as inconclusive [inhibitor, single point]. With `Cc1ccc(NC(=O)CN2CCC(NC(=O)Cc3ccccc3)CC2)cc1C` the Potency was inconclusive [inhibitor, partial curve, poor fit]. With `CN(C)CCCN(C(=O)c1ccc(C(=O)c2ccccc2)cc1)c1nc2cc3c(cc2s1)OCCO3` the Potency was inconclusive [inhibitor, single point]. With `C#CC(CO)N(CCN(Cc1ccccc1)C(C#C)CO)Cc1ccccc1` (stereo not given) the Potency was inconclusive [inhibitor, single point]. For `COc1cc([N+](=O)[O-])ccc1NC(=O)CC1SC(=Nc2ccc(F)cc2)N(CCC2=CCCCC2)C1=O` (stereo not given), the Potency was inconclusive [inhibitor, partial curve, poor fit]. For `COc1cc(OC)c(C2CC(=O)N3CN(c4ccccc4C)CSC3=C2C#N)cc1OC` (stereo not given), the Potency was inconclusive [inhibitor, single point]. In the case of `Cc1ccc(CN(C(=O)Cn2nnc3ccccc32)C(C(=O)NCc2ccco2)c2cccs2)cc1` (stereo not given), the Potency is reported as inconclusive [inhibitor, single point]. For `O=C(CSc1n[nH]c(-c2ccncc2)n1)Nc1ccc(Cl)c(C(=O)O)c1`, the “activity change, negative = inhibition” value was inactive: 7.46%. With `CC(C)CC1Nc2ccc(C(=O)NCCCN3CCOCC3)cc2NC1=O` (stereo not given) the “activity change, negative = inhibition” value was inactive: 0.252%. With `CCOC(=O)C1=C(C)N(c2ccc(C)c(C)c2)C(=O)/C1=C\c1ccco1` the “activity change, negative = inhibition” value was inactive: 0.637%. For `NC(=O)C1CCN(c2nc(-c3ccccc3F)cs2)CC1`, the Potency was inconclusive [inhibitor, single point]. For `O=C(CSc1ccc([N+](=O)[O-])cn1)Nc1ccccc1N1CCOCC1`, the Potency was inconclusive [inhibitor, full curve, poor fit]. With `CN(C(=O)COC(=O)CSc1ccc(C(N)=O)cc1[N+](=O)[O-])C1CCCCC1` the “activity change, negative = inhibition” value was inactive: 5.15%. With `COC(=O)C1=C(c2ccc(F)cc2OCc2ccccc2)C[C@@H]2CC[C@H]1N2C(=O)NCc1ccc(OC)cc1` the Potency was active: 13.1 µM. With `COc1cccc(-c2nc(C(=O)NCC3CCCO3)cc3c2[nH]c2ccccc23)c1` (stereo not given) the Potency was inconclusive [inhibitor, single point]. In the case of `CC(C)Cn1cc(C(=O)N2CCC3(CC2)OCCO3)c2c3ccccc3n(C)c2c1=O`, the Potency is reported as inconclusive [inhibitor, partial curve]. With `CCCCC(NC(C)=O)c1nc2ccccc2n1CCCC` (stereo not given) the Potency was inconclusive [inhibitor, single point]. With `COc1ccc(NC(=S)/N=C(\N)Nc2nc(C)c3ccc(C)cc3n2)cc1` the Potency was active: 11.7 µM. For `O=C(/C=C/c1cccnc1)/C=C/c1cccnc1`, the Potency was inconclusive [inhibitor, partial curve]. With `COC(=O)C1=C(c2ccc(F)cc2OCc2ccccc2)C[C@@H]2CC[C@H]1N2C(=O)NCCc1ccc(F)cc1` the Potency was active: 11.7 µM. With `CCN(CC)c1ccc(NC(=O)Nc2ccccc2)cc1` the Potency was inconclusive [inhibitor, single point]. For `COc1ccc(/C=C2\SC(N3CCc4ccccc4C3)=NC2=O)cc1`, the Potency was inconclusive [inhibitor, partial curve, poor fit]. In the case of `CCOC(=O)c1ccccc1NC(=O)CC1Nc2ccccc2NC1=O` (stereo not given), the Potency is reported as inconclusive [inhibitor, single point]. In the case of `CN(C)S(=O)(=O)c1cccc(NC(=O)CCc2nc3cc(S(=O)(=O)N4CCOCC4)ccc3n2C)c1`, the Potency is reported as inconclusive [inhibitor, single point]. With `Cc1c(NC(=S)N/N=C/C=C/c2ccccc2)c(=O)n(-c2ccccc2)n1C` the Potency was inconclusive [inhibitor, single point]. For `CCOC(=O)c1cnc2c(C)cccc2c1NCc1ccco1`, the Potency was inconclusive [inhibitor, single point]. For `CCCCNC(=O)CSc1nc2n[nH]c(C)c2c(=N)n1-c1cccc(Cl)c1C`, the Potency was inconclusive [inhibitor, single point]. With `CC(C)CC(NC(=O)C1CCC(C)CC1)C(=O)Nc1ccccc1F` (stereo not given) the Potency was inconclusive [inhibitor, single point]. In the case of `O=C(Nc1ccc2c(c1)OCO2)c1nn(-c2ccccc2)c(=O)c2ccccc12`, the Potency is reported as active: 11.7 µM. With `COc1ccccc1N1CCN(C(=O)/C=C/c2cccs2)CC1` the Potency was inconclusive [inhibitor, partial curve, poor fit]. With `Cn1c(=O)n(C)c2cc([N+](=O)[O-])c(N3CCN(C(=O)c4cccc(Cl)c4)CC3)cc21` the Potency was inconclusive [inhibitor, single point]. With `Cc1cc2c(cc1C)NC(c1ccccn1)C1=C(CC(C)(C)CC1=O)N2` (stereo not given) the Potency was active: 10.4 µM.
